From article PMC5836133 come the findings set out here.

The list shows a part of the results. At the low end of the ranking, values are background and their order means little.

In the experiment the test system is T1, GST-NbGlk1(82-244).
T1 sequence: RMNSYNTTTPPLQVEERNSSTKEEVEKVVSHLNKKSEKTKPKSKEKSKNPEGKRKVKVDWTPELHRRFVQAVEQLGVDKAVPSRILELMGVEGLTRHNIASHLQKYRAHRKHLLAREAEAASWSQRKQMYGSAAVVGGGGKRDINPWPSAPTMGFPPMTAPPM
The experiment in a line: protein-binding microarray.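 Note: rank-based score ranging −0.5 to +0.5 with E above 0.45 taken as significant binding.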 The settings on record: NbGlk1 is a Golden2-like transcription factor of Nicotiana benthamiana; high values mean tight binding; most listed sequences are background and not binding sites; double strand, one strand shown.
Take ATAGCCTA: the binding signal was -0.0634 E-score.
Take ACATCATA: the binding signal was 0.0465 E-score.
As for AATGTTTG, the binding signal turned out to be 0.0213 E-score.
Next, ACAAATAT: 0.313 E-score; AGCATTCG: -0.154 E-score.
Next, ACATACAT: 0.0622 E-score; ATCTCTAC: 0.297 E-score.
In turn, ACAATAGA registered a binding signal of 0.146 E-score.
On to AACGTGCA, for which the binding signal was -0.0641 E-score.
The figure for ACGCTCGC is -0.102 E-score; for ACGTGATG it is -0.135 E-score; for ATGCGGTA it is -0.0325 E-score.
Next, AGAACCAA: -0.0688 E-score.
The figure for ATCAGGCC is -0.059 E-score; for CACGAATA it is 0.0913 E-score; for AGCTATCA it is -0.131 E-score.
AAGCGTCT displayed a binding signal of -0.113 E-score.
Sequence AACATGTT came in with a binding signal of 0.0631 E-score.
The figure for AAAAGCCA is -0.142 E-score; for CAAGTGTG it is -0.165 E-score.
Next, AGCGTCCG: -0.218 E-score; ACAGTTAT: 0.1 E-score; ACCTTGCC: -0.15 E-score.
CAAAACGG registered a binding signal of -0.0892 E-score.
ACCTTAGA displayed a binding signal of -0.0815 E-score.
The sequence ACATCCTC gave a binding signal of -0.131 E-score.
The figure for AATAGCCA is -0.124 E-score.
The sequence CACCCGGC displayed a binding signal of -0.182 E-score.
The figure for CACCGTTA is 0.0612 E-score; for AATTCGCA it is 0.264 E-score; for AGCGTTGA it is -0.0401 E-score.
The figure for AGACCGCA is -0.124 E-score; for ACCTCCTG it is -0.16 E-score; for AGCGGCAG it is -0.245 E-score.
Next, ATTCACCA: 0.136 E-score; ATAGACCG: -0.261 E-score.
In turn, ATGTTAAC yielded a binding signal of 0.111 E-score.
The figure for AAACTTGT is -0.0178 E-score; for ATGAGTTA it is -0.103 E-score.
AAGACGCT: the binding signal is -0.107 E-score.
For the sequence AGCAGGCT, the binding signal was -0.21 E-score.
Turning to ATGACTTA, the binding signal is -0.177 E-score.
Next, ATGGAAGG: -0.187 E-score.
The figure for ATTCTACA is 0.147 E-score; for AGGTCAAC it is -0.135 E-score; for ACGTAGAT it is 0.221 E-score.
Next, AAGTGCAA: 0.109 E-score; ATACAATA: 0.174 E-score; AAAGATCG: 0.278 E-score.
CACGGTAC showed a binding signal of 0.00194 E-score.
The figure for ATAAGAAG is 0.0925 E-score; for CACTAAGA it is 0.0822 E-score; for AGGCCATA it is -0.122 E-score.
Next, ACCCCATC: -0.163 E-score; ACCTCCAA: -0.166 E-score.
ATAGGTTC gave a binding signal of -0.0486 E-score.
The figure for CACCGGAA is 0.00917 E-score; for ATGTTCGA it is -0.0389 E-score.
In turn, ACGGGAGC registered a binding signal of -0.181 E-score.
The figure for AAGTAGTG is -0.105 E-score.
Take AAGTGGCA: the binding signal was -0.148 E-score.
Next, AATCCAGT: 0.398 E-score.
ACACTTTC displayed a binding signal of -0.0585 E-score.
Consider AAAAAGCG, for which the binding signal was 0.0737 E-score.
In turn, ACCAAAAG returned a binding signal of -0.141 E-score.
The figure for ACATGTCG is -0.0883 E-score; for ATACCACG it is 0.063 E-score.
As for ATCCCGAG, the binding signal amounted to 0.211 E-score.
The figure for AGGCCTAG is -0.198 E-score; for AGCTTAAG it is -0.0518 E-score.
Next, CACTGTGA: -0.0936 E-score.
ACTTCCAC displayed a binding signal of -0.162 E-score.
Take CAACTTGC: the binding signal was -0.0764 E-score.
For the sequence AGTTCTCA, the binding signal was -0.153 E-score.
The figure for CAATGCAA is 0.0982 E-score; for AGTACACT it is -0.143 E-score.
In turn, AGGATACG yielded a binding signal of 0.357 E-score.
Next, ACTGCACT: -0.148 E-score; CAGCGAAG: -0.039 E-score; CAACCTCG: -0.0426 E-score.
Next, ATGATCCC: 0.0692 E-score; AGAGCAGG: -0.266 E-score.
Turning to AGCCCCAA, the binding signal is -0.324 E-score.
For the sequence AACGCAGG, the binding signal was -0.224 E-score.
Next, ATACCCTC: 0.0749 E-score.
In turn, ACTAACGA registered a binding signal of -0.0223 E-score.
The figure for ACCAACAT is 0.00343 E-score.
Next, AGCTTACA: -0.171 E-score; AACGATTA: 0.1 E-score.
Next, AACGAAAC: 0.111 E-score; AGCTTTGA: -0.0255 E-score.
AAGCACTG: the binding signal was -0.0787 E-score.
In turn, ACCTACGC showed a binding signal of -0.208 E-score.
Regarding ATTTAACC, the binding signal was determined as 0.0755 E-score.
The figure for ACACAAGG is -0.123 E-score.
Regarding ACGATCAG, the binding signal worked out at 0.0965 E-score.
Turning to AAGATAGC, the binding signal stood at 0.128 E-score.
Take ATATGACG: the binding signal was found to be 0.135 E-score.
ACGACCCC displayed a binding signal of -0.327 E-score.
The figure for AACTGAGC is -0.173 E-score.
ATGCCAAT displayed a binding signal of 0.0104 E-score.
Next, AGAAAGTA: 0.159 E-score; ACGTCGCG: -0.0824 E-score.
Next, AAACCCCG: -0.207 E-score; ATCCACCA: 0.188 E-score.
The figure for AATGTGGG is -0.00653 E-score; for AGGTATTG it is 0.0812 E-score.
Turning to ATTGTCGC, the binding signal was 0.035 E-score.
Next, CACGGATC: 0.18 E-score; AGGTATTC: -0.114 E-score; AGGCTCTC: -0.217 E-score.
With ATCCCTTG, the binding signal is 0.14 E-score.
Sequence AGATTCCC yielded a binding signal of 0.493 E-score.
The figure for ACATTGCA is -0.0416 E-score.
The figure for ATCACGTC is 0.0689 E-score; for ACCGACAT it is 0.061 E-score; for ATGATATG it is 0.251 E-score.
The figure for AAACGTAC is -0.0828 E-score; for ATTTCCAA it is 0.36 E-score; for AAGGTACG it is -0.191 E-score.
AATCAGGT: the binding signal amounted to 0.32 E-score.
ACCGCTCA registered a binding signal of -0.0566 E-score.
The figure for CACATCCA is 0.00498 E-score; for AATGTAGG it is 0.0396 E-score.
The figure for AATAACGA is 0.125 E-score.
Next, AGCCGCGG: -0.0482 E-score.
For AAAATTGT, the binding signal is 0.0701 E-score.
Next, ATGCACGA: -0.0751 E-score; ATCCCAAA: 0.229 E-score.
The figure for AGGCTCAA is -0.218 E-score; for ATAGCACG it is -0.014 E-score.
Sequence AGAGTCAC registered a binding signal of -0.241 E-score.
The figure for AGCTCGAA is -0.125 E-score; for ATCATGGA it is 0.207 E-score.
Sequence ATTGCCAG displayed a binding signal of 0.201 E-score.
ATGGTAAT returned a binding signal of 0.305 E-score.
Next, CACGCGTA: 0.0951 E-score; ACCTTCAA: -0.13 E-score; AATCCGCG: 0.396 E-score.
Next, ATAGAAAA: 0.177 E-score; AGGTATAG: -0.162 E-score.
Turning to ACCATACT, the binding signal was 0.0125 E-score.
The figure for AGCTCGCA is -0.198 E-score.
For AACATGTG, the binding signal was -0.191 E-score.
Consider ACTCGCAA, for which the binding signal stood at 0.116 E-score.
With CAATGGTG, the binding signal is -0.0635 E-score.
Next, CAGCGAAA: 0.0177 E-score; AAATCTTG: 0.421 E-score; AATTTAAG: 0.118 E-score.
In turn, ACGACCGA showed a binding signal of -0.0228 E-score.
The figure for ACTTCGCG is -0.0497 E-score; for CAATTCAA it is 0.0499 E-score.
For AACTGGTC, the binding signal is -0.12 E-score.
The sequence AGTGTAAT returned a binding signal of 0.362 E-score.
Next, AGTTTGCA: -0.0193 E-score; ACCTCTGG: -0.276 E-score; AGTACCTG: -0.129 E-score.
Take ACTATGTC: the binding signal was -0.0704 E-score.
Next, ATGCGTTG: -0.0639 E-score; AACCAGGT: -0.214 E-score.
Next, ATCTCTGG: 0.205 E-score; ACCCTGGA: -0.125 E-score; ACTGGGTA: 0.0359 E-score.
In turn, ACGCGTGG gave a binding signal of -0.000566 E-score.
AGTACGGA: the binding signal stood at 0.00996 E-score.
Next, AAAACGCT: -0.0849 E-score.
Next, AGGGGGTC: -0.304 E-score; ACTCGAGA: 0.0784 E-score.
Sequence ACGTGTTG yielded a binding signal of -0.0436 E-score.
Consider AGGAGGCC, for which the binding signal was -0.301 E-score.
The figure for AGTACAAG is -0.115 E-score; for ATGGTCAG it is -0.0491 E-score.
